T1: RBFOX1 RRM (Homo sapiens, UniProt Q9NWB1 109-208)
T1 sequence: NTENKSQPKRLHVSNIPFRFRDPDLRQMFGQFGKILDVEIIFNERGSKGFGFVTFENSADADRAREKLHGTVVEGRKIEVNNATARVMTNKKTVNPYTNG

B1: AUUGUGC (DNA:RNA)
RNA: GGGAGACCGGAAUUCAGAUUGUCCAUUGUGCUUAAAUCCCGUCGUAGCCACCA
DNA 1: CAATCTGAATTCCGGTCTCCC
DNA 2: TGGTGGCTACGACGGGATT
B2: UCCUAUG (DNA:RNA)
RNA: GGGAGACCGGAAUUCAGAUUGUCCUCCUAUGUUAAAUCCCGUCGUAGCCACCA
DNA 1: CAATCTGAATTCCGGTCTCCC
DNA 2: TGGTGGCTACGACGGGATT
B3: CACUUUU (DNA:RNA)
RNA: B2 RNA with U25C, C26A, A29U, G31U
DNA 1: CAATCTGAATTCCGGTCTCCC
DNA 2: TGGTGGCTACGACGGGATT
B4: CUCCUGU (DNA:RNA)
RNA: B1 RNA with A25C, U27C, G28C, C31U
DNA 1: CAATCTGAATTCCGGTCTCCC
DNA 2: TGGTGGCTACGACGGGATT
B5: UUGUGCC (DNA:RNA)
RNA: B1 RNA with A25U, U27G, G28U, U29G, G30C
DNA 1: CAATCTGAATTCCGGTCTCCC
DNA 2: TGGTGGCTACGACGGGATT
B6: ACCCGUA (DNA:RNA)
RNA: B2 RNA with U25A, U28C, A29G, G31A
DNA 1: CAATCTGAATTCCGGTCTCCC
DNA 2: TGGTGGCTACGACGGGATT
B7: GCUAGCU (DNA:RNA)
RNA: B1 RNA with A25G, U26C, G28A, U29G, G30C, C31U
DNA 1: CAATCTGAATTCCGGTCTCCC
DNA 2: TGGTGGCTACGACGGGATT
B8: GCAAUAC (DNA:RNA)
RNA: B1 RNA with A25G, U26C, U27A, G28A, G30A
DNA 1: CAATCTGAATTCCGGTCTCCC
DNA 2: TGGTGGCTACGACGGGATT
B9: AUAGACA (DNA:RNA)
RNA: B1 RNA with U27A, U29A, G30C, C31A
DNA 1: CAATCTGAATTCCGGTCTCCC
DNA 2: TGGTGGCTACGACGGGATT
B10: ACGGGAG (DNA:RNA)
RNA: B1 RNA with U26C, U27G, U29G, G30A, C31G
DNA 1: CAATCTGAATTCCGGTCTCCC
DNA 2: TGGTGGCTACGACGGGATT
B11: UCGUCAC (DNA:RNA)
RNA: B2 RNA with C27G, A29C, U30A, G31C
DNA 1: CAATCTGAATTCCGGTCTCCC
DNA 2: TGGTGGCTACGACGGGATT
B12: CAUGUUA (DNA:RNA)
RNA: B1 RNA with A25C, U26A, G30U, C31A
DNA 1: CAATCTGAATTCCGGTCTCCC
DNA 2: TGGTGGCTACGACGGGATT
B13: UGAAUAA (DNA:RNA)
RNA: B1 RNA with A25U, U26G, U27A, G28A, G30A, C31A
DNA 1: CAATCTGAATTCCGGTCTCCC
DNA 2: TGGTGGCTACGACGGGATT
B14: CCAUCGU (DNA:RNA)
RNA: B2 RNA with U25C, C27A, A29C, U30G, G31U
DNA 1: CAATCTGAATTCCGGTCTCCC
DNA 2: TGGTGGCTACGACGGGATT
B15: UUACGCC (DNA:RNA)
RNA: B1 RNA with A25U, U27A, G28C, U29G, G30C
DNA 1: CAATCTGAATTCCGGTCTCCC
DNA 2: TGGTGGCTACGACGGGATT
B16: GUUUAGA (DNA:RNA)
RNA: B1 RNA with A25G, G28U, U29A, C31A
DNA 1: CAATCTGAATTCCGGTCTCCC
DNA 2: TGGTGGCTACGACGGGATT
B17: AUGGGCU (DNA:RNA)
RNA: B1 RNA with U27G, U29G, G30C, C31U
DNA 1: CAATCTGAATTCCGGTCTCCC
DNA 2: TGGTGGCTACGACGGGATT
B18: CAAUAUU (DNA:RNA)
RNA: B2 RNA with U25C, C26A, C27A, G31U
DNA 1: CAATCTGAATTCCGGTCTCCC
DNA 2: TGGTGGCTACGACGGGATT
B19: UGGUCCA (DNA:RNA)
RNA: B2 RNA with C26G, C27G, A29C, U30C, G31A
DNA 1: CAATCTGAATTCCGGTCTCCC
DNA 2: TGGTGGCTACGACGGGATT
B20: AGUCUAG (DNA:RNA)
RNA: B1 RNA with U26G, G28C, G30A, C31G
DNA 1: CAATCTGAATTCCGGTCTCCC
DNA 2: TGGTGGCTACGACGGGATT
B21: AUCGCUA (DNA:RNA)
RNA: B1 RNA with U27C, U29C, G30U, C31A
DNA 1: CAATCTGAATTCCGGTCTCCC
DNA 2: TGGTGGCTACGACGGGATT
B22: UAUAAAC (DNA:RNA)
RNA: B1 RNA with A25U, U26A, G28A, U29A, G30A
DNA 1: CAATCTGAATTCCGGTCTCCC
DNA 2: TGGTGGCTACGACGGGATT
B23: UGGGACU (DNA:RNA)
RNA: B2 RNA with C26G, C27G, U28G, U30C, G31U
DNA 1: CAATCTGAATTCCGGTCTCCC
DNA 2: TGGTGGCTACGACGGGATT
B24: GAUGUAG (DNA:RNA)
RNA: B1 RNA with A25G, U26A, G30A, C31G
DNA 1: CAATCTGAATTCCGGTCTCCC
DNA 2: TGGTGGCTACGACGGGATT
B25: CGGCGCG (DNA:RNA)
RNA: B2 RNA with U25C, C26G, C27G, U28C, A29G, U30C
DNA 1: CAATCTGAATTCCGGTCTCCC
DNA 2: TGGTGGCTACGACGGGATT
B26: UAGUAAC (DNA:RNA)
RNA: B2 RNA with C26A, C27G, U30A, G31C
DNA 1: CAATCTGAATTCCGGTCTCCC
DNA 2: TGGTGGCTACGACGGGATT
B27: CCUGUCC (DNA:RNA)
RNA: B1 RNA with A25C, U26C, G30C
DNA 1: CAATCTGAATTCCGGTCTCCC
DNA 2: TGGTGGCTACGACGGGATT
B28: GUGCGCU (DNA:RNA)
RNA: B1 RNA with A25G, U27G, G28C, U29G, G30C, C31U
DNA 1: CAATCTGAATTCCGGTCTCCC
DNA 2: TGGTGGCTACGACGGGATT
B29: ACCACGG (DNA:RNA)
RNA: B2 RNA with U25A, U28A, A29C, U30G
DNA 1: CAATCTGAATTCCGGTCTCCC
DNA 2: TGGTGGCTACGACGGGATT
B30: AUACCCG (DNA:RNA)
RNA: B1 RNA with U27A, G28C, U29C, G30C, C31G
DNA 1: CAATCTGAATTCCGGTCTCCC
DNA 2: TGGTGGCTACGACGGGATT
B31: GUUAAUA (DNA:RNA)
RNA: B1 RNA with A25G, G28A, U29A, G30U, C31A
DNA 1: CAATCTGAATTCCGGTCTCCC
DNA 2: TGGTGGCTACGACGGGATT

Substitutions are numbered along the chain they refer to; changes in the protein carry UniProt numbers. The list shows a part of the results.

The test deals with T1, RBFOX1 RRM. Kind of test: EMSA; HiTS-Eq, 1 nM pool, 10 min; buffer printed only for the single-RNA assays: 10 mM Tris pH 7.5, 150 mM NaCl, 3.4 mM EDTA, 0.001% NP-40, 30 C. As to conditions: tags: His6 N-terminal (pET28a); label: 5' 32P. The method, boiled down: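 A pool of RNA with 7 randomized nucleotides, 5′-radiolabelled and with DNA-annealed flanks, was equilibrated at 1 nM for 10 min in 50 µL with purified RbFox RRM, wild type or mutant, across increasing protein concentrations. Free RNA was separated by 8% native PAGE, excised, reverse-transcribed, barcoded by PCR and sequenced. Relative association constants were obtained from read-count changes of each RNA species versus the control reaction and normalised to the cognate motif.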
B1: the binding signal is 0.0222 KA relative to UGCAUGU. The same measure for B2: 0.0102 KA relative to UGCAUGU; for B3: 0.000646 KA relative to UGCAUGU; for B4: 0.0131 KA relative to UGCAUGU. The same measure for B5: 0.0199 KA relative to UGCAUGU; for B6: 0.00331 KA relative to UGCAUGU; for B7: 0.0158 KA relative to UGCAUGU. The same measure for B8: 0.00467 KA relative to UGCAUGU; for B9: 0.00134 KA relative to UGCAUGU. For the molecule B10, the binding signal was 0.011 KA relative to UGCAUGU. The same measure for B11: 0.00454 KA relative to UGCAUGU. The same measure for B12: 0.00544 KA relative to UGCAUGU. Next, B13: 0.00876 KA relative to UGCAUGU. In the case of B14, the binding signal was 0.00683 KA relative to UGCAUGU. Next, B15: 0.00657 KA relative to UGCAUGU. The same measure for B16: 0.015 KA relative to UGCAUGU; for B17: 0.0189 KA relative to UGCAUGU.

B18: the binding signal is 0.000816 KA relative to UGCAUGU.

With B19, the binding signal is 0.00831 KA relative to UGCAUGU. The same measure for B20: 0.00581 KA relative to UGCAUGU. The same measure for B21: 0.00293 KA relative to UGCAUGU. For the molecule B22, the binding signal is 0.00347 KA relative to UGCAUGU.

For the molecule B23, the binding signal is 0.0159 KA relative to UGCAUGU. Next, B24: 0.0159 KA relative to UGCAUGU; B25: 0.0184 KA relative to UGCAUGU. The same measure for B26: 0.0109 KA relative to UGCAUGU. With B27, the binding signal was 0.0112 KA relative to UGCAUGU. Take B28: the binding signal was 0.0163 KA relative to UGCAUGU. The same measure for B29: 0.0054 KA relative to UGCAUGU; for B30: 0.000677 KA relative to UGCAUGU.

As for B31, the binding signal was 0.00376 KA relative to UGCAUGU.
